Assay results taken from PubChem BioAssay AID2675 (National Center for Advancing Translational Sciences (NCATS), 2010).
In all, about 280,000 compounds went through this assay and about 100 (0.036%) were called active. This list was built around the results that the source calls inconclusive (neither active nor inactive); the mix of calls is not that of the screen. Calls come from the whole dose curve; as a rule, active = well fitted inhibition curve with a large enough effect in the signal ratio, with a control signal flat (not every such curve was filed as active); inconclusive = small, poorly fitted or top-dose-only effect, or effect the other way, or a change in a side signal; inactive = no such curve, though single readings can be large or run the other way; the % refers to the signal ratio. Potencies of inconclusive entries are doubtful fits and often do not repeat. A note “side channel” means that the fit belongs to a control or component signal, not to the main read-out.

Molecular target: Muscleblind-like protein 1 (Homo sapiens) (UniProt Q9NR56)
Assay: qHTS Assay for Inhibitors of MBNL1-poly(CUG) RNA binding
Conditions: TR-FRET MBNL1-His/biotin-(CUG)12 binding, 665/545 ratio; series mostly up to 57.5 µM
Summary of the method: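 Compounds (final 92 nM to 58 uM) are added to His-tagged MBNL1 and biotin-(CUG)12, then terbium anti-His antibody and streptavidin-XL665 (5 nM final). After 60 min at room temperature, the 665/545 nm ratio is read.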
Potency is the fitted concentration of half-maximal effect; tags give direction and shape of the fitted curve or compound fluorescence and quenching.

Chain of UniProt Q9NR56 (Q9NR56 whole entry, looked up): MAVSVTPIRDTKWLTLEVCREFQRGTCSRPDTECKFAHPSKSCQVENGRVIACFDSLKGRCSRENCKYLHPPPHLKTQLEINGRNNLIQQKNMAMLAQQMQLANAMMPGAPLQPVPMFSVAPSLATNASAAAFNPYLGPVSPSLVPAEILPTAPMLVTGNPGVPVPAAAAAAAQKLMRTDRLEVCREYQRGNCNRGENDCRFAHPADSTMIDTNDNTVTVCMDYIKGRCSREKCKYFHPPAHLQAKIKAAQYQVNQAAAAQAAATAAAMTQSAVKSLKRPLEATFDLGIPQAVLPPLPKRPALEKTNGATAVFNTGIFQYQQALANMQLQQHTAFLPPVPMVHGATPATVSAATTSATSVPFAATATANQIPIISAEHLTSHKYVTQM

Row | Structure (SMILES) | Potency
1 | COc1ccc2nnc(-c3ccccc3)n2n1 | inactive
2 | CCCNC(=O)c1ccc(N2CCC3(CC2)CC(c2cccc(Br)c2)=NO3)c([N+](=O)[O-])c1 | inactive
3 | O=C(OCN1C(=O)c2ccccc2C1=O)/C(=C\c1ccco1)NC(=O)c1ccccc1 | inconclusive: 22.4 µM [quencher, side channel, single point]
4 | Clc1ccccc1C1Nc2cccc3cccc(c23)N1 | inactive
5 | COc1ccc(/C=C2/N=C3CCCCCN3C2=O)cc1 | inconclusive: 7.94 µM [quencher, side channel, partial curve]
6 | C/C(=N\NC(=O)c1c(Cl)cnn1C)c1cccc(NC(=O)C(C)C)c1 | inconclusive: 3.55 µM [fluorescent, side channel, single point]
7 | CC(C)Oc1cccc(-c2cc(C(=O)N3CCN(S(C)(=O)=O)CC3)c3ccccc3n2)c1 | inconclusive: 0.126 µM [quencher, side channel, full curve, poor fit]
8 | O=C(N/C(=C\c1cccc([N+](=O)[O-])c1)C(=O)N1CCOCC1)c1ccc([N+](=O)[O-])cc1 | inconclusive: 17.8 µM [quencher, side channel, partial curve]
9 | O=C(c1ccco1)N1CCN(C(=O)c2cc(-c3ccccn3)nc3ccc(Cl)cc23)CC1 | inactive
10 | O=C(Nc1cc(S(=O)(=O)N2CCOCC2)ccc1N1CCCC1)c1ccc2c(c1)S(=O)(=O)c1ccccc1C2=O | inconclusive: 4.47 µM [quencher, side channel, full curve]
11 | Cc1cc(C)n(/N=C/c2cccs2)c(=O)c1C#N | inconclusive: 12.6 µM [quencher, side channel, partial curve]
12 | O=C(O)CNC(=O)/C(=C/c1cccc([N+](=O)[O-])c1)NC(=O)c1ccco1 | inconclusive: 12.6 µM [quencher, side channel, partial curve]
13 | Cc1cccc(C)c1NC(=S)Nc1ccc(F)cc1 | inactive
14 | CCOC(=O)c1c(NC(=O)c2ccco2)n(C2CCCCC2)c2nc3ccccc3nc12 | inactive
15 | CN(CC(=O)Nc1ccc(F)cc1)C(=O)c1ccc(-c2ccc(Cl)cc2)o1 | inactive
16 | O=C1C2C(C(=O)N1/N=C/c1cc([N+](=O)[O-])ccc1O)C1C=CC2C12CC2 (stereo not drawn) | inconclusive: 25.1 µM [quencher, side channel, partial curve]
17 | C/C(=N\NC(=O)c1cccc([N+](=O)[O-])c1)c1ccco1 | inconclusive: 20 µM [quencher, side channel, partial curve]
18 | O=[N+]([O-])c1ccc(Oc2cccc(F)c2)c2ccncc12 | inconclusive: 6.31 µM [quencher, partial curve]
19 | COC(=O)c1[nH]c2cccc(OC)c2c1NC(=O)CCN1CCN(c2ccccc2OC)CC1 | inactive

Row | Structure (SMILES) | Potency
20 | COc1ccc(C)c(NC(=O)NCCc2cnc[nH]2)c1 | inactive
21 | N#Cc1c(SCC(N)=O)nc2c(c1-c1ccc(O)cc1)CCCC2 | inconclusive: 25.1 µM [fluorescent, side channel, single point]
22 | COc1cccc(/C=N/NC(=O)c2ccc([N+](=O)[O-])cc2Cl)c1O | inconclusive: 10 µM [quencher, partial curve]
23 | Cc1cnc(NC(=O)c2ccc3c(c2)C(=O)N(Cc2cccnc2)C3=O)s1 | inconclusive: 0.708 µM [quencher, side channel, full curve, poor fit]
24 | NC(=Nc1ccc(N)cc1)C(N)=Nc1ccc(N)cc1 | inconclusive: 6.31 µM [quencher, side channel, partial curve]
25 | O=[N+]([O-])c1cc(Cl)cc(C2=NCCN2)c1 | inconclusive: 11.2 µM [quencher, side channel, partial curve]
26 | COc1ccc(CNC(=O)COC(=O)c2cc(-c3ccc(Cl)s3)nc3ccccc23)cc1 | inconclusive: 25.1 µM [fluorescent, side channel, single point]
27 | Cc1ccc(NC(=O)/C(=C\c2ccc([N+](=O)[O-])cc2)NC(=O)c2ccccc2)cc1 | inactive
28 | COc1ccc(NC(=O)CCC(=O)OCC(=O)c2ccc(Oc3ccc([N+](=O)[O-])cc3)cc2)cc1 | inconclusive: 7.08 µM [quencher, side channel, partial curve]
29 | COc1ccccc1OCC(=O)N/N=C/C=C/c1ccc([N+](=O)[O-])o1 | inconclusive: 1.78 µM [quencher, side channel, partial curve, poor fit]
30 | O=C(c1cc(C(=O)N2CCN(c3ccc(F)cc3)CC2)cc([N+](=O)[O-])c1)N1CCN(c2ccc(F)cc2)CC1 | inconclusive: 17.8 µM [quencher, side channel, partial curve]
31 | Cc1ccc(S(=O)(=O)CCc2nnc(N)s2)cc1C | inconclusive: 1 µM [quencher, side channel, full curve, poor fit]
32 | O=C(Nc1ccccc1)Nc1cc([N+](=O)[O-])ccc1F | inconclusive: 0.141 µM [quencher, side channel, full curve, poor fit]
33 | Cc1nc(N)sc1-c1csc(Nc2ccccc2)n1 | inactive
34 | C=CCc1c(C)nc(-c2ccccc2)nc1N/N=C(\C)c1ccccc1 | inconclusive: 5.01 µM [quencher, side channel, single point]
35 | COc1ccc(-c2ccc(/C=N/NC(=O)c3cccnc3)o2)c([N+](=O)[O-])c1 | inconclusive: 0.631 µM [quencher, side channel, full curve, poor fit]
36 | COc1ccc(/C=N/Nc2ccccn2)cc1OC | inconclusive: 25.1 µM [quencher, side channel, partial curve]
37 | O=C(C1=C[C@H](C2CCCCC2)C[C@H](OCc2ccc(CO)cc2)O1)N1CCN(Cc2ccc3c(c2)OCO3)CC1 | inconclusive: 3.16 µM [fluorescent, side channel, single point]
38 | CCOc1ccc2nc(NC(=O)CN3CCC(n4nnc5cc(C(F)(F)F)ccc54)CC3)sc2c1 | inactive
